In PMC4336329 (PLoS ONE, 2015):
The whole screen tested about 310,000 compounds, of which about 2,200 (0.71%) showed an effect of 50% or more. Effects have a minus sign here. The list shows a part of the results.

molecular target: human ether-à-go-go-related gene (hERG) potassium channel (human, UniProt Q12809); test: primary screen, population patch clamp on CHO cells stably expressing hERG
Sequence (Q12809 whole entry, looked up): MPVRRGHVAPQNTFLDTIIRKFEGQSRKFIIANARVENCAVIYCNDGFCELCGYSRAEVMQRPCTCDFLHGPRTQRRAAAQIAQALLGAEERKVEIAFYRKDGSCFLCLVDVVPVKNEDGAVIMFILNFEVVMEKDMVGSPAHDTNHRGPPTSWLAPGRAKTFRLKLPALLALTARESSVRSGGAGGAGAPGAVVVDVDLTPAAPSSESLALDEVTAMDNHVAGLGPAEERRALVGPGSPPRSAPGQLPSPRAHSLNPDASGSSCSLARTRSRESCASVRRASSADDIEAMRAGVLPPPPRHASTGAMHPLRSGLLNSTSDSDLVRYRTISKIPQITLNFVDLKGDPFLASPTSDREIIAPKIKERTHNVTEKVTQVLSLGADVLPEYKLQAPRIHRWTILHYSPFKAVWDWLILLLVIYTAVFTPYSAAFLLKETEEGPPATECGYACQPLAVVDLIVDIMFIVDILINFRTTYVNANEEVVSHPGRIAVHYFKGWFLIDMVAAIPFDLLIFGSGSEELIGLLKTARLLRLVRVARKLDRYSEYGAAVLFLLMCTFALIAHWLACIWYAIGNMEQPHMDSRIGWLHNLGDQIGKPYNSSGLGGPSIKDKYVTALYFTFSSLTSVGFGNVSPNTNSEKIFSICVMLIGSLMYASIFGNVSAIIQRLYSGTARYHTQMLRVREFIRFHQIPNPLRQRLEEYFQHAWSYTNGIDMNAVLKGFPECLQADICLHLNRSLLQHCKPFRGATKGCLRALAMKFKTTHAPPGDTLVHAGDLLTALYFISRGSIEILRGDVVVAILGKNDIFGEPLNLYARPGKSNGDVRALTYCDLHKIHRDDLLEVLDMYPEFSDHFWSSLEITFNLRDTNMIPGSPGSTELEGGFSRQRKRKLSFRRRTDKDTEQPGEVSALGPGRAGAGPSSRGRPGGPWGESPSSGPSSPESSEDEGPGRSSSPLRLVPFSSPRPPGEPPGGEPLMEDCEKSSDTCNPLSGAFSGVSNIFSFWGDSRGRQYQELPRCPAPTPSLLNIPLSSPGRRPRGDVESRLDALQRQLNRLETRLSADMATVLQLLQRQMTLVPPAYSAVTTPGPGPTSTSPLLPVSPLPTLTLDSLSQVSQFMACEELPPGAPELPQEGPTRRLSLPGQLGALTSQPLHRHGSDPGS

Row | SMILES | hERG current change (%, negative = inhibition) at 1uM [%]
1 | CC(=O)c1sc(-c2ccccc2)nc1C | -1.3
2 | N#CCC(=N)N1CCN(c2ccc(F)cc2)CC1 | 4.63
3 | COc1ccc(C(=O)N2CCN(CCc3ccccn3)CC2)cc1.Cl | -66.6
4 | COc1ccc(CCNC(=O)c2nc3ncccn3n2)cc1OC | 17.9
5 | COc1cc(COc2ccc3c(C)c(CC(=O)O)c(=O)oc3c2C)cc(OC)c1OC | 9.85
6 | CC(=O)c1ccc(-n2ccc(=O)cc2)cc1 | 16.1
7 | O=C(NCCCO)c1nnc(Cc2c(F)cccc2Cl)o1 | 9.61
8 | CCOC(=O)CC(=O)CSc1nc2c(c(-c3cccs3)c1C#N)CCC2 | -3.94
9 | Cc1ccc2nsnc2c1NC(=O)c1sc2ccccc2c1Cl | 12.6
10 | Cc1cc(OCC(=O)NC(C)c2ccccc2)ccc1[N+](=O)[O-] (centres unmarked) | -0.258
11 | CC(C)c1nc(CNC(=O)C2CCC(=O)N(Cc3ccc(Cl)cc3)C2)no1 (centres unmarked) | 13.3
12 | CC(C)OC(=O)CSc1nnc(-c2ccco2)n1N | 1.32
13 | CCc1nn(C(CC)C(=O)NCc2cccc(OC)c2OC)c(=O)c2cc3occc3n12 (centres unmarked) | 7.7
14 | Cl.Clc1cccc(N2CCNCC2)c1 | 9.51
15 | CN(C)S(=O)(=O)c1cccc(CSCc2cccc(S(=O)(=O)N(C)C)c2)c1 | 16.7
16 | Cc1ccc(-c2noc(=O)n2CC(=O)c2ccc(Cl)cc2)cc1 | 12.9
17 | O=C(Cc1ccccc1)OCc1ccccc1 | 14.8
18 | CC(C)(C)C(=O)N/C(N)=N/c1nc2ccccc2o1 | 12.6
19 | CSc1ccc(NC(=O)NCCCN2CCN(c3ccccc3F)CC2)cc1 | -12.8
20 | COc1ccc(Cl)cc1NC(=O)CN(C)CC(=O)Nc1ccccc1N1CCOCC1.O=C(O)C(=O)O | 12.4
21 | COc1cccc(-c2cc(C(=O)N3CCN(Cc4ccc5c(c4)OCO5)CC3)on2)c1 | 0.447
22 | NC(=O)c1nnn(-c2ccccc2)c1N | 14.8

Row | SMILES | hERG current change (%, negative = inhibition) at 1uM [%]
23 | CC(=O)n1cc(/C=N/NC(=O)c2ccc([N+](=O)[O-])cc2)c2ccccc21 | 14.7
24 | O=C(CSC1=NS(=O)(=O)c2cc(Cl)ccc2N1)c1ccc(Cl)cc1 | 10.6
25 | C[C@H](N=C1NS(=O)(=O)c2ccccc21)C(=O)OCc1cc([N+](=O)[O-])cc2c1OCOC2 | -6.37
26 | CCOC(=O)C1C(=O)CC(C)(O)C(C(=O)OCC)C1c1ccc(OCC)cc1 (centres unmarked) | -2.96
27 | CCOC(=O)C1(Cc2ccccc2)CCN(Cc2ccc3cc(NC(C)=O)ccc3n2)CC1 | -19.1
28 | CC12CCC(C(=O)OC3CCCCC3)(OC1=O)C2(C)C (centres unmarked) | 14.5
29 | O=C(COc1cccnc1[N+](=O)[O-])NCCc1ccc(Cl)cc1 | 9.83
30 | COc1ccc(C(=O)OC(C)C(=O)NC2CCCC2)cc1S(=O)(=O)N1CCOCC1 (centres unmarked) | 10.1
31 | COC(=O)c1ccc(C23CC4(C2)[C@H](CN(Cc2ccc(C(F)(F)F)cc2)[C@@H]4c2ccccc2)C3c2ccc(Cl)nc2)cc1 (some centres unmarked) | 14.3
32 | CCOC(=O)c1cc(OCC(=O)NC(C)C(C)C)cc(C(=O)OCC)c1 (centres unmarked) | 2.41
33 | Cc1ccc(S(N)(=O)=O)cc1NC(=O)C1CC2CCC1C2 (centres unmarked) | 10.9
34 | Cc1ccc(C)c(S(=O)(=O)N2CCN(C(=O)c3ccc(-n4cncn4)c([N+](=O)[O-])c3)CC2)c1 | -24.9
35 | O=C1NC(N2CCOCC2)=N/C1=C/c1ccc2c(c1)OCO2 | 11.1
36 | Cc1cc(=O)[nH]c(N/N=C/c2ccc(-c3ccc(F)cc3)o2)n1 | 4.59
37 | CC1Cc2nc(SCC(=O)c3ccccc3)n(Cc3ccccc3)c(=O)c2S1 (centres unmarked) | 11.6
38 | CC(=O)Nc1ccc(NS(=O)(=O)c2ccc(-c3csc(C)n3)s2)cc1 | 2.06
39 | O=C(CSc1nc(=O)n(CCCN2CCOCC2)c2c1CCC2)Nc1ccc(F)cc1F | -3.76
40 | COc1ccc(-n2nc(C(=O)Nc3nc4ccc(OC)cc4s3)c3ccccc3c2=O)c(OC)c1 | 9.59
41 | CCN(CC)C(=O)c1ccc2c(=O)n(Cc3cccc(Br)c3)c(=S)[nH]c2c1 | 16.1
42 | CCC1(C)CC(C(N)=S)CCO1 (centres unmarked) | 10.4
43 | C=CCN(C(=O)c1csnn1)C(C(=O)NC1CCCC1)c1ccc(OC)cc1 (centres unmarked) | 8.18
44 | CCCc1ccc(-c2cc(C(=O)NN3CCOCC3)c3ccccc3n2)cc1 | -1.34

Row | SMILES | hERG current change (%, negative = inhibition) at 1uM [%]
45 | CCCN(CCC)C(C(=O)Nc1cccc(OC)c1)c1ccccc1 (centres unmarked) | 15.6
46 | O=C(Nc1ccc(F)cc1)c1nc[nH]c1C(=O)Nc1ccccc1[N+](=O)[O-] | 1.76
47 | COc1ccc2nc(SCC(=O)NC3CCCCC3C)[nH]c2c1 (centres unmarked) | 9.58
48 | Cc1ccc(C2CC(=O)C=C(O)C2)cc1 (centres unmarked) | 7.09
49 | O=C(NC(=S)Nc1cccc(Cl)c1N1CCCCC1)c1ccco1 | 20.3
50 | O=C(O)C1CCCN1C1=NS(=O)(=O)c2ccccc21 (centres unmarked) | 2.35
51 | Cc1nnc2n(c1=O)C(CS(=O)(=O)c1ccc3ccccc3c1)CS2 (centres unmarked) | 9.24
52 | CCc1nc(SCC(=O)Nc2ccc([N+](=O)[O-])cc2)n[nH]1 | 12.8
53 | COc1ccc(S(=O)(=O)N2CCN=C2SCc2cccc(C)c2)cc1 | 14.1
54 | CN1C(CC(=O)c2ccccc2)CCCC1CC(O)c1ccccc1 (centres unmarked) | -55.2
55 | O=C(COC(=O)C1CC(O)CN1S(=O)(=O)c1ccc(Cl)cc1)c1ccccc1 (centres unmarked) | 11.9
56 | O=C(COC(=O)c1cc(=O)[nH]c2ccccc12)c1ccccc1 | 11.3
57 | CCc1sc(N(C(=O)Cc2ccccc2)c2cccc(F)c2)nc1-c1ccc(C)cc1 | -3.77
58 | Nc1c(C(=O)NCc2ccccc2)c2nc3ccccc3nc2n1-c1ccc2c(c1)OCO2 | 6.37
59 | COC(=O)c1c(N)n(CCCN2CCOCC2)c2nc3ccccc3nc12 | 2.97
60 | COC(=O)c1cc(-c2ccccc2)sc1N | 11.6
61 | CC(C)CCNC(=O)CNC(=S)N(Cc1ccccc1)Cc1cccnc1 | 0.279
62 | CN1CCN(c2ccccc2NC(=O)c2ccc(-c3cccc([N+](=O)[O-])c3)o2)CC1 | -0.213
63 | C=C(C)C(=O)Nc1cccc(C2=NOC3(C2)C[C@@H](C(N)=O)N(C(=O)CC(c2ccccc2)c2ccccc2)C3)c1 (some centres unmarked) | 8.76
64 | O=C(N/N=C/c1ccccc1)c1cc(=O)[nH]c2ccccc12 | 13.9
65 | CCCCn1c(/C=N/Nc2nc3ccccc3[nH]2)nc2ccccc21 | 11
66 | COc1ccccc1C(=O)NCC(=O)N/N=C/c1ccc([N+](=O)[O-])cc1 | 13.5

Row | SMILES | hERG current change (%, negative = inhibition) at 1uM [%]
67 | Nc1nonc1-n1nnc(C(=O)N/N=C/c2ccccc2Cl)c1-c1ccccc1 | 18.9
68 | CC(CCc1ccccc1)NC(=S)NC1CCCCC1 (centres unmarked) | 13.9
69 | Cc1ccc(S(=O)(=O)N(CC(=O)O)Cc2ccco2)cc1 | 17.4
70 | CCc1nnc2sc(-c3ccc(NC(=O)CSc4ccc(Cl)cc4)cc3)nn12 | 13.2
71 | CCOc1ccc2nc(SCC(=O)N3c4ccccc4Sc4ccccc43)c(C#N)cc2c1 | 8.77
72 | C#CCOCCOCCOCCNc1nc(N2CCN(C(=O)[C@H]([C@@H](C)O)n3cc(CCCC[NH3+])nn3)CC2)nc(N2CCN(C(=O)[C@H](CCCC[NH3+])n3cc(CC(C)O)nn3)CC2)n1.[Cl-] (some centres unmarked) | 2.98
73 | O=C1c2cccc3cccc(c23)C(=O)N1CCCn1ccnc1 | 2.55
74 | CCOc1cccc(N(C(=O)CNC(=O)c2ccco2)C(C(=O)NCC2CCCO2)c2ccccc2)c1 (centres unmarked) | 5.26
75 | c1cnc(-c2noc(CN3CCN(C4C5CC6CC(C5)CC4C6)CC3)n2)cn1 (centres unmarked) | 8.06
76 | Cc1ccccc1NC(=O)COC(=O)c1ccc(S(C)(=O)=O)c([N+](=O)[O-])c1 | 3.66
77 | COc1ccc(-c2csc(C3=C(O)CN(Cc4ccc(Cl)cc4)C3=N)n2)cc1OC | 0.975
78 | O=C(Nc1ccccc1Sc1ccccc1)C1CCCO1 (centres unmarked) | 9.59
79 | OC1CCCCC1N1CCC(c2ccccc2)CC1 (centres unmarked) | 8.04
80 | O=c1c2ccccc2nc(-c2ccc(Cl)c(Cl)c2)n1O | 12.8
81 | CC(C)(C)NC(=O)C1CCN(c2ccc(S(=O)(=O)N3CCOCC3)cc2Cl)CC1 | 9.46
82 | CCc1nc2ccc(C(=O)O)cc2nc1CC | 10.2
83 | COc1ccc(CNC(=O)CCCc2ccccc2)cc1 | -0.319
84 | O=C(Nc1ccc2c(c1)OCCO2)C1CCN(c2nnnn2-c2ccccc2)CC1 | 16.4
85 | COc1ccc(Cl)c(OC)c1C(=O)NC(=O)Nc1nc(C)nc(C)n1 | 0.149
86 | Cc1ccc2nc(Cl)c(/C=N/n3c(C)nnc3C)cc2c1 | 6.34
